In all, about 33,000 sequences were measured (“E-score (-0.5 to 0.5)”: median about -0.035, highest 2% from about 0.34 on). Some of the results follow.

The target of this assay is T1, Mot3 (UniProt P54785).
T1 sequence: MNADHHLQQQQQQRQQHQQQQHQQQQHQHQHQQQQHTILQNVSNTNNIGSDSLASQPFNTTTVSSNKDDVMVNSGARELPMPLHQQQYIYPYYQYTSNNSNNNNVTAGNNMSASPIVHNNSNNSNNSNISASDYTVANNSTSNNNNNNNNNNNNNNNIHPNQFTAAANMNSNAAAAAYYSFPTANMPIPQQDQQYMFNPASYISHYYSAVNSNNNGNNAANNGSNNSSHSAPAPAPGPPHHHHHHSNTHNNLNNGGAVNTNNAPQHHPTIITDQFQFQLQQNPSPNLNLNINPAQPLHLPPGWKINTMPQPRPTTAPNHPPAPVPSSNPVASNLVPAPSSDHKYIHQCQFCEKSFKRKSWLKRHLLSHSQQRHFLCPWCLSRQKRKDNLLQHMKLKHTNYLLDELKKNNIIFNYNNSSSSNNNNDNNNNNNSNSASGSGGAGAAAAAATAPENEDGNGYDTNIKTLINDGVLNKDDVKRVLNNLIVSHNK
Kind of assay: PBM E-score (8-mer binding enrichment) (E-score (-0.5 to 0.5)); higher = stronger / more preferred TF binding; most listed sequences are background and not binding sites. The conditions noted are these: protein concentration: 200 nM; construct: GST-full length. Put shortly: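 Detection of bound protein used fluorescent anti-GST, with scans normalised by masliner. The proteins were GST-tagged yeast transcription factors applied at about 100-200 nM to universal all-10-mer Agilent arrays made double-stranded by primer extension. Each ungapped eight-base word, pooled with its reverse complement, was scored with an E-score from the Universal PBM Analysis Suite.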
Regarding AGCTTCGA, the “PBM E-score” value was -0.0819.
The result for CCCGTCTA reads -0.0225; that for ACAGACCG, 0.0365.
As for ACACATCA, the “PBM E-score” value amounted to 0.156.
Regarding CGATTAAC, the “PBM E-score” value was determined as 0.039.
To CATTACCG belongs -0.0399; to GAGGGGAC, -0.265; to ACGTTGGC, 0.0862.
To CGTATTGC belongs -0.0223.
To GGCGACCC belongs -0.198; to GACCATAC, -0.304.
Take CGGGAATA: the “PBM E-score” value is 0.0659.
The result for AGCAGAAC reads 0.131.
In the case of CTTGGACC, the “PBM E-score” value was -0.217.
To GGGGTTAC belongs -0.121; to CTAGCACC, -0.0791.
The result for ACCTTCCC reads -0.109.
To AGTTAAGA belongs 0.0706.
Turning to CGCTGACC, the “PBM E-score” value was -0.12.
The result for AAGTTCAG reads 0.0796; that for AAACGCAG, 0.14.
With AGCACTTG, the “PBM E-score” value was -0.232.
To GACTGGTA belongs -0.00685; to ACAATCCC, -0.0456.
The result for AAGTTGGT reads 0.0859; that for CTACTATA, -0.0503; that for ACAAGGAA, 0.263.
The result for GCGCGCAA reads -0.00842; that for CAAGTGTA, 0.0318.
As to ACTAGAGA, the “PBM E-score” value was -0.156.
For CCGGTCTC, the “PBM E-score” value is -0.24.
To AGCATGCG belongs 0.0838; to CGGGCGAC, -0.233.
The result for AGTCGTGA reads -0.144; that for CTATGTGC, 0.0921.
The result for GGGGGTTA reads -0.284; that for CGCCGTCC, -0.0658; that for CCGGGATA, -0.13.
Consider GTACCGGA, for which the “PBM E-score” value turned out to be 0.104.
The result for AGTACTCA reads -0.0481.
The result for ACTTCGCT reads -0.0775; that for CATAGTTA, 0.0396.
To ACACGCTG belongs 0.256.
As for CGAAACCC, the “PBM E-score” value was -0.0567.
Turning to ATAAGCTC, the “PBM E-score” value is -0.207.
On to AATCTATG, for which the “PBM E-score” value was -0.00189.
Take CCAGCTGC: the “PBM E-score” value was -0.229.
To GATTTGAC belongs 0.0417; to CTGTCGGC, -0.252; to AGCGTGGC, -0.152.
Take GAGGACAA: the “PBM E-score” value was -0.138.
To TACAACGA belongs 0.164.
The result for CAATTTGA reads 0.0368.
Turning to CGGAGGTC, the “PBM E-score” value was -0.212.
The result for CCCCGCGA reads -0.285.
With CCCTGACA, the “PBM E-score” value is -0.109.
To ATAGCCCA belongs -0.044.
Consider ACTTGCCC, for which the “PBM E-score” value was determined as 0.0267.
Regarding AATATACT, the “PBM E-score” value was determined as 0.0246.
The result for CCTTACAA reads 0.211; that for AGTAGTAG, -0.047; that for CAAACTAA, 0.182.
In the case of AAGGATTC, the “PBM E-score” value is -0.0475.
GGGACCAA: the “PBM E-score” value is -0.185.
To GCTCAGCC belongs -0.0736.
The result for TATGGTGA reads -0.158; that for CGATCCCG, -0.113.
To GAGGGGCC belongs -0.141; to CTCCGCCA, -0.164.
For ACACTCTC, the “PBM E-score” value amounted to 0.0843.
The result for AGCGAAAC reads 0.0281.
To GCATCTCC belongs -0.211.
Regarding GGTAGAAA, the “PBM E-score” value was -0.12.
To CGCCAACC belongs -0.161.
The result for AGATATAT reads 0.0802.
To CCGCCACA belongs -0.111; to CTTTTTCC, 0.0963; to AACAACCT, 0.148.
For the sequence AACACGTC, the “PBM E-score” value was 0.316.
To AGGGTATC belongs -0.212; to CTCTAAAA, 0.00053; to CAAGTTAG, -0.0126.
To AGTACGTC belongs -0.145; to AATACTTG, 0.136; to CACGCAGC, 0.0415.
To ATAGATCG belongs -0.174.

The values above are taken from the supplement of paper PMC3334620.
